Laboratory results reported in paper PMC5700166.
The entries are a selection whose mix differs from that of the whole data set. The list includes weakly bound sequences.

molecular target: T1, GST-Co-NF-kB (UniProt F1ARL5); experiment: protein-binding microarray (PBM); details: PBM: ~300 nM protein, 6 mM HEPES pH 7.8, 80 mM KCl, 0.5 mM EDTA, 0.5 mM EGTA, 6% glycerol, 35 ng/ul poly-dIdC, 1% milk, 1 h, room temperature; high values mean tight binding; double strand, one strand shown
T1 sequence: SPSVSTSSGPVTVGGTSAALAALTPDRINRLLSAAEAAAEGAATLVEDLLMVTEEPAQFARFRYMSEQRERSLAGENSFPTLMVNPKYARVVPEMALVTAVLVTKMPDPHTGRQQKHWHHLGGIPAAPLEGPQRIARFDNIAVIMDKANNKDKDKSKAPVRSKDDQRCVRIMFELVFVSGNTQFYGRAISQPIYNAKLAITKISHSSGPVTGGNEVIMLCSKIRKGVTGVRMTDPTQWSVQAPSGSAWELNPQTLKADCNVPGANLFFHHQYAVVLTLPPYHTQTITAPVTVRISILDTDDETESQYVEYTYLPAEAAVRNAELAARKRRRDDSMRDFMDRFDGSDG

Sequence | binding signal [z-score]
CCGATTAACATCAGGGGGGTGCATGATGTTAATCGGGTCTTGATTCGCTTGACGCTGCTG | 3.47
CCGATTAACATCAATTTTCCCAATGATGTTAATCGGGTCTTGATTCGCTTGACGCTGCTG | 3.99
CCGATTAACATCAGGGATTCCCATGATGTTAATCGGGTCTTGATTCGCTTGACGCTGCTG | 2.91
CCGATTAACATCAAGGGTTTTCCTGATGTTAATCGGGTCTTGATTCGCTTGACGCTGCTG | 0.633
CCGATTAACATCAGGGATTTCTATGATGTTAATCGGGTCTTGATTCGCTTGACGCTGCTG | 1.22
CCGATTAACATCAAGTTTTCCCCTGATGTTAATCGGGTCTTGATTCGCTTGACGCTGCTG | 10.3
CCGATTAACATCAGGAACGTCCCTGATGTTAATCGGGTCTTGATTCGCTTGACGCTGCTG | -0.167

molecular target: T2, GST-Dm-Relish (UniProt Q94527); experiment: protein-binding microarray (PBM); details: PBM: ~300 nM protein, 6 mM HEPES pH 7.8, 80 mM KCl, 0.5 mM EDTA, 0.5 mM EGTA, 6% glycerol, 35 ng/ul poly-dIdC, 1% milk, 1 h, room temperature; Ap Aiptasia and Nv Nematostella (sea anemones) / Co Capsaspora / Aq Amphimedon (sponge) / Dm Drosophila / Hu human; RHD is the Rel homology domain; high values mean tight binding; most listed sequences are background and not binding sites; double strand, one strand shown
T2 sequence: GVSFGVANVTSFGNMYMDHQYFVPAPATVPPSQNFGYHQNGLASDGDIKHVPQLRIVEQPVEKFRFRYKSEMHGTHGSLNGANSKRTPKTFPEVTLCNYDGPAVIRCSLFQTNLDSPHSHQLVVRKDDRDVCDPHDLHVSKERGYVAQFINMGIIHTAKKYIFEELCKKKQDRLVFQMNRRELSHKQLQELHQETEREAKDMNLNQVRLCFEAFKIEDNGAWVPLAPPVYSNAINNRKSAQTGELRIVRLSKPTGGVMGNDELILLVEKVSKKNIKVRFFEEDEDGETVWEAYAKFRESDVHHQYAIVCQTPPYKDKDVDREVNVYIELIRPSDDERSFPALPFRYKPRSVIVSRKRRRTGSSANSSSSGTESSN

Sequence | binding signal [z-score]
CCGATTAACATCAGGGGGGTGCATGATGTTAATCGGGTCTTGATTCGCTTGACGCTGCTG | 4.16
CCGATTAACATCAGGCTATTCCCTGATGTTAATCGGGTCTTGATTCGCTTGACGCTGCTG | 0.784
CCGATTAACATCACTGAAATCCCTGATGTTAATCGGGTCTTGATTCGCTTGACGCTGCTG | 3.35
CCGATTAACATCAGGGGGGAAGATGATGTTAATCGGGTCTTGATTCGCTTGACGCTGCTG | 3.64
CCGATTAACATCACCTCCCCCCCTGATGTTAATCGGGTCTTGATTCGCTTGACGCTGCTG | 4.13
CCGATTAACATCAAAATTCCCAATGATGTTAATCGGGTCTTGATTCGCTTGACGCTGCTG | 5.17
CCGATTAACATCAGGCATACCCCTGATGTTAATCGGGTCTTGATTCGCTTGACGCTGCTG | 1.3
CCGATTAACATCAGGGAAAGACCTGATGTTAATCGGGTCTTGATTCGCTTGACGCTGCTG | 5.61
CCGATTAACATCAATTTTCCCAATGATGTTAATCGGGTCTTGATTCGCTTGACGCTGCTG | 1.29
CCGATTAACATCACACATGCCCCTGATGTTAATCGGGTCTTGATTCGCTTGACGCTGCTG | 0.998
CCGATTAACATCAGGCAAACCCCTGATGTTAATCGGGTCTTGATTCGCTTGACGCTGCTG | 3.13
CCGATTAACATCAACGAATCCCCTGATGTTAATCGGGTCTTGATTCGCTTGACGCTGCTG | 4.84
CCGATTAACATCAGGGGGGATACTGATGTTAATCGGGTCTTGATTCGCTTGACGCTGCTG | 5.55
CCGATTAACATCAAACATCCCCTTGATGTTAATCGGGTCTTGATTCGCTTGACGCTGCTG | 6.75
CCGATTAACATCAGCAATTTCCCTGATGTTAATCGGGTCTTGATTCGCTTGACGCTGCTG | 1.78
CCGATTAACATCAGGGATTCCCATGATGTTAATCGGGTCTTGATTCGCTTGACGCTGCTG | 10
CCGATTAACATCAAGGGTTTTCCTGATGTTAATCGGGTCTTGATTCGCTTGACGCTGCTG | 4.7
CCGATTAACATCAGGGGACTTCATGATGTTAATCGGGTCTTGATTCGCTTGACGCTGCTG | 6.09
CCGATTAACATCAAATTTTTCCCTGATGTTAATCGGGTCTTGATTCGCTTGACGCTGCTG | 2.35
CCGATTAACATCAAAAAACTCCCTGATGTTAATCGGGTCTTGATTCGCTTGACGCTGCTG | 7.13
CCGATTAACATCAGGGATTTCTATGATGTTAATCGGGTCTTGATTCGCTTGACGCTGCTG | 5.1
CCGATTAACATCAACTTTCCCAGTGATGTTAATCGGGTCTTGATTCGCTTGACGCTGCTG | 0.651
CCGATTAACATCAACAATCCCCCTGATGTTAATCGGGTCTTGATTCGCTTGACGCTGCTG | 5.46
CCGATTAACATCAGGGGTTACACTGATGTTAATCGGGTCTTGATTCGCTTGACGCTGCTG | 2
CCGATTAACATCAACTACCCCCCTGATGTTAATCGGGTCTTGATTCGCTTGACGCTGCTG | 3.4
CCGATTAACATCATGATGGGAAATGATGTTAATCGGGTCTTGATTCGCTTGACGCTGCTG | 0.809
CCGATTAACATCAGCATGGGAAATGATGTTAATCGGGTCTTGATTCGCTTGACGCTGCTG | 0.0696
CCGATTAACATCAACTTCCCCCCTGATGTTAATCGGGTCTTGATTCGCTTGACGCTGCTG | 7.29
CCGATTAACATCAGATATTCCCATGATGTTAATCGGGTCTTGATTCGCTTGACGCTGCTG | 1.78
CCGATTAACATCAAGTTTTCCCCTGATGTTAATCGGGTCTTGATTCGCTTGACGCTGCTG | 6.09
